Test results published in the supplement of paper PMC8728848.
Some of the results follow.

Columns and labels:
Test in all cases: glycan array binding signal (z-score within array); higher = stronger binding
Conditions in all cases: glycan notation: IUPAC condensed, linker removed
[1] = target: Fuc(a1-3)[Gal(b1-4)]GlcNAc(b1-3)Gal(b1-4)[Fuc(a1-3)]GlcNAc
Procedure, shortened: (§1)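 Glycan array data came from 3228 arrays in the Consortium for Functional Glycomics database, and only arrays with an available protein sequence were kept. Glycan names were put into IUPAC-condensed notation, and columns mapping to the same glycan were averaged. The binding signal is a within-array Z-score, averaged across arrays of one protein sequence run at different concentrations or buffers and across linkers. A negative Z-score can be read as non-binding.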

[2] = target: Fuc(a1-3)[Gal(b1-4)]GlcNAc(b1-3)Gal(b1-4)[Fuc(a1-3)]GlcNAc(b1-3)Gal(b1-4)[Fuc(a1-3)]GlcNAc
Procedure, shortened: as §1

[3] = target: Fuc(a1-3)[Gal(b1-4)]GlcNAc(b1-3)GalNAc
Procedure, shortened: as §1

[4] = target: Fuc(a1-3)[Gal(b1-4)]GlcNAc(b1-6)GalNAc
Procedure, shortened: as §1

[5] = target: Fuc(a1-3)[Gal(b1-4)]GlcNAc(b1-6)[Gal(b1-3)GlcNAc(b1-3)]Gal(b1-4)Glc
Procedure, shortened: as §1

[6] = target: Fuc(a1-3)[Gal(b1-4)]GlcNAc6S
Procedure, shortened: as §1

[7] = target: Fuc(a1-3)[Gal3S(b1-4)]Glc
Procedure, shortened: as §1

[8] = target: Fuc(a1-3)[Gal3S(b1-4)]GlcNAc
Procedure, shortened: as §1

[9] = target: Fuc(a1-3)[Gal3S(b1-4)]GlcNAc6S
Procedure, shortened: as §1

[10] = target: Fuc(a1-3)[GalNAc(b1-4)]GlcNAc
Procedure, shortened: as §1

[11] = target: Fuc(a1-3)[GalNAc(b1-4)]GlcNAc6S
Procedure, shortened: as §1

Fuc(a1-4)GlcNAc = target: Fuc(a1-4)GlcNAc
Procedure, shortened: as §1

Fuc(b1-3)GlcNAc = target: Fuc(b1-3)GlcNAc
Procedure, shortened: as §1

Gal(a1-2)Gal = target: Gal(a1-2)Gal
Procedure, shortened: as §1

Gal(a1-3)Gal = target: Gal(a1-3)Gal
Procedure, shortened: as §1

Gal(a1-3)Gal(b1-3)GlcNAc = target: Gal(a1-3)Gal(b1-3)GlcNAc
Procedure, shortened: as §1

[12] = target: Gal(a1-3)Gal(b1-3)GlcNAc(b1-2)Man
Procedure, shortened: as §1

[13] = target: Gal(a1-3)Gal(b1-3)GlcNAc(b1-2)Man(a1-3)[Gal(a1-3)Gal(b1-3)GlcNAc(b1-2)Man(a1-6)]Man(b1-4)GlcNAc(b1-4)GlcNAc
Procedure, shortened: as §1

[14] = target: Gal(a1-3)Gal(b1-3)GlcNAc(b1-3)GalNAc
Procedure, shortened: as §1

[15] = target: Gal(a1-3)Gal(b1-3)GlcNAc(b1-6)GalNAc
Procedure, shortened: as §1

[16] = target: Gal(a1-3)Gal(b1-3)[Fuc(a1-4)]GlcNAc(b1-2)Man(a1-3)[Gal(a1-3)Gal(b1-3)[Fuc(a1-4)]GlcNAc(b1-2)Man(a1-6)]Man(b1-4)GlcNAc(b1-4)GlcNAc
Procedure, shortened: as §1

Gal(a1-3)Gal(b1-4)Glc = target: Gal(a1-3)Gal(b1-4)Glc
Procedure, shortened: as §1

Gal(a1-3)Gal(b1-4)GlcNAc = target: Gal(a1-3)Gal(b1-4)GlcNAc
Procedure, shortened: as §1

[17] = target: Gal(a1-3)Gal(b1-4)GlcNAc(b1-2)Man
Procedure, shortened: as §1

[18] = target: Gal(a1-3)Gal(b1-4)GlcNAc(b1-2)Man(a1-3)[Gal(a1-3)Gal(b1-4)GlcNAc(b1-2)Man(a1-6)]Man(b1-4)GlcNAc(b1-4)GlcNAc
Procedure, shortened: as §1

[19] = target: Gal(a1-3)Gal(b1-4)GlcNAc(b1-3)GalNAc
Procedure, shortened: as §1

[20] = target: Gal(a1-3)Gal(b1-4)GlcNAc(b1-6)GalNAc
Procedure, shortened: as §1

[21] = target: Gal(a1-3)Gal(b1-4)[Fuc(a1-3)]GlcNAc
Procedure, shortened: as §1

[22] = target: Gal(a1-3)Gal(b1-4)[Fuc(a1-3)]GlcNAc(b1-2)Man(a1-3)[Gal(a1-3)Gal(b1-4)[Fuc(a1-3)]GlcNAc(b1-2)Man(a1-6)]Man(b1-4)GlcNAc(b1-4)GlcNAc
Procedure, shortened: as §1

Gal(a1-3)GalNAc = target: Gal(a1-3)GalNAc
Procedure, shortened: as §1

[23] = target: Gal(a1-3)[Gal(a1-4)]Gal(b1-4)GlcNAc
Procedure, shortened: as §1

[24] = target: Gal(a1-4)Gal(b1-3)GlcNAc(b1-2)Man(a1-3)[Gal(a1-4)Gal(b1-3)GlcNAc(b1-2)Man(a1-6)]Man(b1-4)GlcNAc(b1-4)GlcNAc
Procedure, shortened: as §1

Gal(a1-4)Gal(b1-4)Glc = target: Gal(a1-4)Gal(b1-4)Glc
Procedure, shortened: as §1

Gal(a1-4)Gal(b1-4)GlcNAc = target: Gal(a1-4)Gal(b1-4)GlcNAc
Procedure, shortened: as §1

[25] = target: Gal(a1-4)Gal(b1-4)GlcNAc(b1-2)Man(a1-3)[Gal(a1-4)Gal(b1-4)GlcNAc(b1-2)Man(a1-6)]Man(b1-4)GlcNAc(b1-4)GlcNAc
Procedure, shortened: as §1

[26] = target: Gal(a1-4)Gal(b1-4)GlcNAc(b1-3)Gal(b1-4)Glc
Procedure, shortened: as §1

Gal(a1-4)GlcNAc = target: Gal(a1-4)GlcNAc
Procedure, shortened: as §1

Gal(a1-6)Glc = target: Gal(a1-6)Glc
Procedure, shortened: as §1

B1: SP8524D-bot-399-27-399 (Bacteroides ovatus) (protein)
chain: DAKYDTLDTHAYIEEALSSTSQKVTVQATGESFTTLNVHLSNLSSTDNHYKLVTDQSVLDTYNHINGTGYIMLPKDYYTLPETITVKAGQYAADALSIALKAFSQEMMKSGESYALPVKLVLQDGSISPMENTGTFVILAESIIEFSAPMFVGAPSLKANKFTESPETYSQYTIEVRFQVANTADRDRAVFKNGGDDANFILLRFEDPQSDNENYKAHSLVQIVGRNRLYLNPSNSFKPNEWQHLALVCDGSNYRLYINGVDSGVLSIPTGATTFSDVNWFCLGDDSYSRWGNCKILMSEARIWSVVRSASQIQNNMTQVSPKSVGLEAYWRFNEGQGNVFEDATGKGHTLTTSATPTWIDGILSTDKSTEWK
[1]
  glycan array binding signal (z-score): -0.486
[2]
  glycan array binding signal (z-score): 0.228
[3]
  glycan array binding signal (z-score): -0.197
[4]
  glycan array binding signal (z-score): 0.306
[5]
  glycan array binding signal (z-score): -0.326
[6]
  glycan array binding signal (z-score): -0.038
[7]
  glycan array binding signal (z-score): -0.356
[8]
  glycan array binding signal (z-score): 0.675
[9]
  glycan array binding signal (z-score): 0.012
[10]
  glycan array binding signal (z-score): 1.02
[11]
  glycan array binding signal (z-score): -0.001
Fuc(a1-4)GlcNAc
  glycan array binding signal (z-score): 6.02
Fuc(b1-3)GlcNAc
  glycan array binding signal (z-score): -0.083
Gal(a1-2)Gal
  glycan array binding signal (z-score): -0.243
Gal(a1-3)Gal
  glycan array binding signal (z-score): 0.103
Gal(a1-3)Gal(b1-3)GlcNAc
  glycan array binding signal (z-score): -0.411
[12]
  glycan array binding signal (z-score): -0.197
[13]
  glycan array binding signal (z-score): -0.354
[14]
  glycan array binding signal (z-score): -0.204
[15]
  glycan array binding signal (z-score): 0.005
[16]
  glycan array binding signal (z-score): -0.187
Gal(a1-3)Gal(b1-4)Glc
  glycan array binding signal (z-score): -0.416
Gal(a1-3)Gal(b1-4)GlcNAc
  glycan array binding signal (z-score): -0.463
[17]
  glycan array binding signal (z-score): -0.453
[18]
  glycan array binding signal (z-score): 0.063
[19]
  glycan array binding signal (z-score): -0.022
[20]
  glycan array binding signal (z-score): -0.05
[21]
  glycan array binding signal (z-score): -0.568
[22]
  glycan array binding signal (z-score): 0.533
Gal(a1-3)GalNAc
  glycan array binding signal (z-score): -0.059
[23]
  glycan array binding signal (z-score): 3.56
[24]
  glycan array binding signal (z-score): -0.261
Gal(a1-4)Gal(b1-4)Glc
  glycan array binding signal (z-score): 0.281
Gal(a1-4)Gal(b1-4)GlcNAc
  glycan array binding signal (z-score): 0.249
[25]
  glycan array binding signal (z-score): -0.336
[26]
  glycan array binding signal (z-score): -0.231
Gal(a1-4)GlcNAc
  glycan array binding signal (z-score): -0.177
Gal(a1-6)Glc
  glycan array binding signal (z-score): -0.444
